From PubChem BioAssay AID504832 (National Center for Advancing Translational Sciences (NCATS), 2011)
About 18,000 (5.8%) of roughly 310,000 compounds were called active. Inconclusive results, whose numbers are uncertain, are shown with a selection of clear calls. Calls come from the whole dose curve; as a rule, active = well fitted inhibition curve with a large enough effect; inconclusive = small, poorly fitted or top-dose-only effect, or another doubt; inactive = no such curve, though single readings can be large or run the other way. Potencies of inconclusive entries are left out as doubtful fits.

Experiment: Primary qHTS for delayed death inhibitors of the malarial parasite plastid, 48 hour incubation
Conditions: P. falciparum luciferase growth in erythrocytes; series mostly up to 28.7 µM
Summary of the method: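 Luciferase-expressing P. falciparum in infected erythrocytes (2% hematocrit, 0.1% parasitemia final) in RPMI 1640/0.5% Albumax were exposed to compound for 48 hours at 37 C, 5% CO2; growth read as luminescence.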
Potency is the fitted concentration of half-maximal effect; tags give direction and shape of the fitted curve.

| SMILES | Potency |
| --- | --- |
| COC(=O)c1ccccc1NC(=O)CSc1nc(Nc2ccccc2)nc(N2CCOCC2)n1 | active: 9.28 µM |
| Cc1sc(NC(=O)c2ccco2)nc1-c1ccc2c(c1)CC(C)N2C(=O)C1CC1 (centres undefined) | inconclusive [inhibitor, partial curve] |
| O=S(=O)(c1ccc2c(c1)OCCO2)N1CCN(c2cccc(Cl)c2)CC1 | inactive |
| Cc1cc2ccccc2c(=O)n1CC(=O)NCC(=O)N1CCN(c2cccc(Cl)c2)CC1 | inactive |
| Cc1cc(C)cc(C(=O)N(CCc2ccccc2)C2=CC3CCC(C2)N3C)c1 (centres undefined) | active: 11.7 µM |
| CC(=O)c1c(-c2ccc(C)cc2)nc2c3ccccc3ccn12 | inconclusive [inhibitor, partial curve, poor fit] |
| CCCc1cc(=O)[nH]c2nnc(SCC(=O)Nc3ccc(C(C)=O)cc3)n12 | inconclusive [inhibitor, partial curve] |
| COc1cccc(-c2nnc(SC(C(=O)c3c[nH]c4ccccc34)c3ccccc3)n2C)c1 (centres undefined) | active: 13.1 µM |
| COc1c(C)cc(C(=O)C2CCCN(Cc3cnc(C)s3)C2)cc1C (centres undefined) | inconclusive [inhibitor, single point] |
| CCN(CC)CCCNc1ccc(-c2nnc(-c3ccc(OCC(C)C)cc3)o2)cn1 | inconclusive [inhibitor, single point] |
| O=C(CN1C(=O)c2cccnc2Oc2ccc(Cl)cc21)NCCc1ccccc1 | inconclusive [inhibitor, full curve, poor fit] |
| C/C(=N\NC1=NCCN1)c1ccc(Cl)cc1 | inconclusive [inhibitor, partial curve] |
| Cc1ccc(Cl)cc1NC(=S)N1CCC(c2ccccc2)C1 (centres undefined) | active: 11.7 µM |
| O=C1C=C(Nc2cccc(Cl)c2)CC(c2ccco2)C1 (centres undefined) | inconclusive [inhibitor, single point] |
| Cc1cc2nc(/N=C(\N)NC(=O)C(C)C)nc(C)c2cc1C | active: 2.62 µM |
| CC(C(=O)Nc1ccc(F)cc1Cl)N1CCN(S(=O)(=O)c2cccs2)CC1 (centres undefined) | inconclusive [inhibitor, single point] |
| CCC1(c2ccccc2)ON(c2c(Br)cccc2Br)C1=O (centres undefined) | active: 0.415 µM |
| CN1C(=S)SC(/[N+]([O-])=C/c2ccc(Cl)cc2)C1(C)C (centres undefined) | inactive |
| Clc1ccc2c(c1)C(c1ccccc1Cl)=NCc1nnc(N3CCN(CCOc4ccccc4)CC3)n1-2 | inconclusive [inhibitor, single point] |
| Cc1ccnc(N2C(=O)CSC2c2ccc(Cl)cc2)c1 (centres undefined) | inconclusive [inhibitor, partial curve, poor fit] |
| COc1ccc(Cc2nnc(Nc3ccc(Cl)cc3)[nH]c2=O)cc1 | inconclusive [inhibitor, partial curve] |
| CC1CCN(CCCCOc2ccc([N+](=O)[O-])cc2)CC1 | inconclusive [inhibitor, partial curve, poor fit] |

| SMILES | Potency |
| --- | --- |
| CC(=O)c1cccc(NC(=O)c2ccc(NC(=O)CC3SC(N4CCCCC4)=NC3=O)cc2)c1 (centres undefined) | inconclusive [inhibitor, single point] |
| COc1ccc2nc(C3CCCCC3)nc(C3CCCCC3)c2c1 | inconclusive [inhibitor, single point] |
| Nc1nnc(/C=C/c2ccccc2)s1 | inactive |
| O=C1Nc2ccccc2C(O)(C(=O)NCc2ccc3c(c2)OCO3)N1c1ccc(Cl)c(Cl)c1 (centres undefined) | inconclusive [inhibitor, full curve, poor fit] |
| Cn1cc(NC(=O)CCl)cn1 | inconclusive [inhibitor, partial curve, poor fit] |
| COCCC(=O)Nc1ccc2c(c1)CN(C(=O)CCSC)CC2 | inactive |
| O=C(O)CNC(=O)c1ccc(N2CCOCC2)cc1[N+](=O)[O-] | inactive |
| O=C(NC1CCSc2ccccc21)c1ccc(Cl)c(S(=O)(=O)N2CCOCC2)c1 (centres undefined) | inconclusive [inhibitor, single point] |
| CC(=O)Nc1ccccc1C(=O)C(=O)Nc1cccc(C(=O)NCC2CCCO2)c1 (centres undefined) | inconclusive [inhibitor, single point] |
| CN(c1ccccc1)c1nc(N)c([N+](=O)[O-])c(N2CCCCCC2)n1 | inconclusive [inhibitor, single point] |
| Cc1ccc(N(CC(O)CN2CCCC2)S(=O)(=O)c2ccc(C)cc2)cc1 (centres undefined) | inconclusive [inhibitor, partial curve, poor fit] |
| COCCn1c(=O)[nH]c(=O)c2c1nc(-c1cc(Br)c3c(c1)OCO3)n2Cc1ccccc1 | inconclusive [inhibitor, single point] |
| CC(C)CC1Nc2ncnc(N3CCCCC3)c2N(Cc2ccccc2)C1=O (centres undefined) | active: 11.7 µM |
| COCCN1Cc2cccc(C(=O)Nc3ccc(S(=O)(=O)N4CCOCC4)cc3)c2C1=O | inactive |
| O=C(Nc1nnc(SCc2cccnc2)s1)C1CC(=O)N(c2ccc(F)cc2)C1 (centres undefined) | inactive |
| CN(c1ccccc1)c1nc(N)c([N+](=O)[O-])c(NCc2ccccc2)n1 | inconclusive [inhibitor, partial curve, poor fit] |
| O=C(Cn1c(=O)n(Cc2ccco2)c(=O)c2c3c(sc21)CCCC3)Nc1ccccc1 | inconclusive [inhibitor, partial curve] |
| Cc1ccc2nc(C(C)O)[nH]c2c1 (centres undefined) | inactive |
| COc1cc(C(=O)NCC(=O)NCCCSc2ccccc2)cc(OC)c1OC | inconclusive [inhibitor, single point] |
| C/C(=N/NC(=O)C1CCCN1C(=O)c1ccc([N+](=O)[O-])cc1)c1ccc(Br)cc1 (centres undefined) | inconclusive [inhibitor, full curve, poor fit] |
| COc1ccccc1NNC(=O)c1cc(C(C)(C)C)nn1Cc1ccccc1 | inconclusive [inhibitor, single point] |
| CCN(CC)C(=S)NC(=O)Cc1ccccc1 | inactive |
